The whole screen tested about 310,000 compounds, of which about 2,200 (0.71%) showed an effect of 50% or more. Effects have a minus sign here. Some of the results follow.
Each compound was assayed against human ether-à-go-go-related gene (hERG) potassium channel (human, UniProt Q12809) (assay: primary screen, population patch clamp on CHO cells stably expressing hERG).
human ether-à-go-go-related gene (hERG) potassium channel, sequence (Q12809 whole entry, looked up): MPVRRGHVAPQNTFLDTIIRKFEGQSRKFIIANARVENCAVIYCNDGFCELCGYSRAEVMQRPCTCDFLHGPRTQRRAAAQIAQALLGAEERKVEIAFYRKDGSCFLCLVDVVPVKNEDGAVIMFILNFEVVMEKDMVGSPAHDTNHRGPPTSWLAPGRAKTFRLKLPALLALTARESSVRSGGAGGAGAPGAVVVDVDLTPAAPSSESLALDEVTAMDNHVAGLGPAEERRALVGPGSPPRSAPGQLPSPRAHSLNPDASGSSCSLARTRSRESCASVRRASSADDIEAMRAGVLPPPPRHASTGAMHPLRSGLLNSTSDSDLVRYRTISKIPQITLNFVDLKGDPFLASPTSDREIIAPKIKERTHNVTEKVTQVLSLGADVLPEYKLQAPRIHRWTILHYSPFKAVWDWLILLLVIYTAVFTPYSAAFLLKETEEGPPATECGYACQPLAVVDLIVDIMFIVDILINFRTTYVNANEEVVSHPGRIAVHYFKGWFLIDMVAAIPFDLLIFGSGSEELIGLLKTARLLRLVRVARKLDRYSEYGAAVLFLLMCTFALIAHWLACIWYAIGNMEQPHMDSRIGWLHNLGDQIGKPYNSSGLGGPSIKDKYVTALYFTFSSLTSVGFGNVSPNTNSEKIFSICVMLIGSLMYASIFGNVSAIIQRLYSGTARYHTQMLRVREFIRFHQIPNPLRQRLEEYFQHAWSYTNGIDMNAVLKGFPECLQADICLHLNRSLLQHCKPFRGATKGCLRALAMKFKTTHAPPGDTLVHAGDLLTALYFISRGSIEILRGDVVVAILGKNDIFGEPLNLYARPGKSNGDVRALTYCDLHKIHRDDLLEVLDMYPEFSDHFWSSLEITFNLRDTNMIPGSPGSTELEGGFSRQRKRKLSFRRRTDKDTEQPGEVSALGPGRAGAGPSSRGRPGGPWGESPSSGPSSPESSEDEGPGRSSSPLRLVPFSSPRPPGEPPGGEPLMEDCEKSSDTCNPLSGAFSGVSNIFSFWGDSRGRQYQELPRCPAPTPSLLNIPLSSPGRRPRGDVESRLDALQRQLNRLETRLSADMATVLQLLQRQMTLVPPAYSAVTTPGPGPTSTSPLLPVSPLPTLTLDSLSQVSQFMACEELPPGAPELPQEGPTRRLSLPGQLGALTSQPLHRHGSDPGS

First: CC(=O)Oc1ccc(/C=N/NC(=O)C2CCCN2S(=O)(=O)c2ccc(Cl)cc2)cc1 (stereo not shown)
Second: Cc1ccc(C(=O)Oc2ccc(C(=S)N3CCOCC3)cc2)cc1
The “hERG current change (%, negative = inhibition) at 1uM” value of the first is lower: 0.349% for the first, 8.94% for the second.

First: C=CCn1c(O)c(N=NC(=S)Nc2ccccc2C)c2cc(S(=O)(=O)N3CCOCC3)ccc21
Second: Cc1ccc(NC(=O)c2ccc(S(=O)(=O)N3CCOCC3)cc2)c(C)c1
The “hERG current change (%, negative = inhibition) at 1uM” value of the first is lower: 9.08% for the first, 16.1% for the second.

Compared with `COc1ccc(CCCc2nnc(SCC(=O)N/N=C\c3ccc(O)c(OC)c3)o2)cc1C`, `CCOc1ccc(CCNC(=O)c2nnn(CC(=O)Nc3ccc(C)cc3)c2N)cc1OCC` is higher in “hERG current change (%, negative = inhibition) at 1uM” value: 15% for the first, 15.2% for the second.

Compared with `COc1cc(OC)cc(C(=O)NC2=NCCS2)c1`, `COc1ccc(C(=O)NN)cc1` is lower in “hERG current change (%, negative = inhibition) at 1uM” value: 7.38% for the first, -8.52% for the second.

First: CCN1CCN(CC(O)COCCOc2ccc(Br)cc2)CC1.Cl (stereo not shown)
Second: CC(C)OCC(O)CN1CCN(C(c2ccccc2)c2ccccc2)CC1.Cl (stereo not shown)
The “hERG current change (%, negative = inhibition) at 1uM” value of the first is higher: 8.18% for the first, -4.1% for the second.

Going from `O=C1CC(Nc2ccc(N3CCOCC3)cc2)C(=O)N1c1cccc(C(F)(F)F)c1` (stereo not shown) to `CCC(=O)N1CCN(c2ccc(NC(=O)c3ccc4ccccc4c3)cc2)CC1`, the “hERG current change (%, negative = inhibition) at 1uM” value rises from 5.71% to 19.1%.

First: O=C(NCCCCNC(=O)c1ccc(Br)s1)c1ccc(Br)s1
Second: O=C(NCCCNC(=O)c1cnccn1)c1cccc(Cl)c1
The “hERG current change (%, negative = inhibition) at 1uM” value of the first is lower: 4.22% for the first, 13.6% for the second.

Compared with `CCN1CCN(C(=S)NCC2CCCO2)CC1.O=C(O)C(=O)O` (stereo not shown), `CC(C)[C@H](NC(=O)N1CCn2c1nc1ccccc12)C(=O)NCC1CCCO1` (stereo partly shown) is lower in “hERG current change (%, negative = inhibition) at 1uM” value: 5.97% for the first, 5.34% for the second.

Compared with `CCc1nnc(NC(=O)CSc2ccc(-c3nc4ccccc4[nH]3)cn2)s1`, `O=C(CCn1nnc2ccccc21)Nc1nnc(Cc2ccccc2)s1` is lower in “hERG current change (%, negative = inhibition) at 1uM” value: 10.6% for the first, 9.47% for the second.

Compared with `CCN(CC)c1nc(N)nc(NS(=O)(=O)c2ccc(Cl)cc2)n1`, `Nc1ccc(S(=O)(=O)Nc2cnc3ccccc3n2)cc1` is higher in “hERG current change (%, negative = inhibition) at 1uM” value: -3.13% for the first, 8.84% for the second.

Going from `CCOC(=O)C(=Cc1ccc(F)cc1)C(=O)OCC` to `CCOC(=O)/C(=C\C=C\c1ccccc1)NC(=O)c1ccccc1`, the “hERG current change (%, negative = inhibition) at 1uM” value falls from 4.39% to -12.1%.

Compared with `CC1(C)CC(=O)C(CC2=C(O)CC(C)(C)CC2=O)C(=O)C1`, `CC(=O)c1c(C)nn(CC(O)Cn2c3c(c4cc(C)ccc42)CCCC3=O)c1C` (stereo not shown) is higher in “hERG current change (%, negative = inhibition) at 1uM” value: 9.74% for the first, 13% for the second.

First: CN(Cc1ccccc1)C(=O)c1ccc(NC(=O)Cc2cccc(NC(=O)C3CCCN(C(=O)C4CCCCC4)C3)c2)cc1 (stereo not shown)
Second: O=C(Nc1ccc2c(c1)OCO2)C1CCN(C(=O)c2ccc(Br)cc2)CC1
The “hERG current change (%, negative = inhibition) at 1uM” value of the first is higher: 10.3% for the first, -42.3% for the second.

Going from `O=C(Cc1ccccc1[N+](=O)[O-])NNC(=O)c1cccs1` to `Cc1ccc(CNC(=O)COC(=O)CCC(=O)c2cccs2)cc1`, the “hERG current change (%, negative = inhibition) at 1uM” value falls from 14.2% to 9.05%.

Going from `Cn1c(=O)c(Nc2ccc(Cl)cc2)c2c3c(cccc31)C(=O)c1ccccc1-2` to `Cc1ccc(S(=O)(=O)c2c(COC(=O)c3cccc(Cl)c3)c(-c3ccccc3)nn2C)cc1`, the “hERG current change (%, negative = inhibition) at 1uM” value falls from 14.9% to -12.9%.

Compared with `Cc1ccc(/C=N/NC(=O)c2cccc(NC(=O)c3ccccc3C)c2)o1`, `COc1cccc(/C=N/NC(=O)c2cccc3ccccc23)c1` is higher in “hERG current change (%, negative = inhibition) at 1uM” value: -2.6% for the first, 9% for the second.

Going from `Cc1ccccc1NC(=O)Nc1ccccc1C(N)=O` to `CC(OC(=O)c1oc2ccccc2c1COc1ccccc1)C(=O)NC(N)=O` (stereo not shown), the “hERG current change (%, negative = inhibition) at 1uM” value falls from 12.8% to -6.83%.

Going from `Cc1nc(N/N=C\c2ccc3c(c2)OCO3)sc1C` to `O=C(/C=C/c1ccc2c(c1)OCO2)NCCSCc1ccc(Cl)cc1`, the “hERG current change (%, negative = inhibition) at 1uM” value rises from 16.4% to 17.9%.

Going from `COc1ccc(Cl)cc1Nc1nc(-c2sc(NC(=O)CC(C)C)nc2C)cs1` to `COc1cc(OC)c(NC(=O)[C@@H]2CCC(=O)N2C2OC(=O)c3c2ccc(OC)c3OC)cc1Cl` (stereo partly shown), the “hERG current change (%, negative = inhibition) at 1uM” value falls from 11.1% to -13.6%.

Going from `Fc1ccc(CNc2nc(-c3ccco3)cc(C(F)(F)F)n2)cc1` to `O=C(NNS(=O)(=O)c1ccc(F)cc1)c1ccc2c(c1)OCO2`, the “hERG current change (%, negative = inhibition) at 1uM” value falls from 14.4% to 2.24%.

Compared with `Cn1ncc(Br)c1C(=O)NC1CCCCCC1`, `CN(C)S(=O)(=O)N1CCC(Oc2cccc(C(=O)NC3CCCCC3)c2)CC1` is lower in “hERG current change (%, negative = inhibition) at 1uM” value: 3.27% for the first, 2.87% for the second.

Compared with `O=Cc1cn(Cc2cccc([N+](=O)[O-])c2)c2ccccc12`, `CNC(C(=O)c1ccccc1)C(OC(C)=O)c1cccc([N+](=O)[O-])c1.[O-][Cl+3]([O-])([O-])O` (stereo not shown) is higher in “hERG current change (%, negative = inhibition) at 1uM” value: -10.1% for the first, 13.4% for the second.

Going from `CC(C)(C)c1ccc(OCC(=O)N/N=C/C2CC=CCC2)cc1` (stereo not shown) to `CC(C)c1ccc(NC2CCCN(C(=O)c3ccsc3)C2)cc1` (stereo not shown), the “hERG current change (%, negative = inhibition) at 1uM” value falls from 12.7% to 10.2%.

Going from `CCc1cccc(C)c1NC(=O)c1ccoc1C` to `CCCc1c(C(=O)Nc2ccc(OC)cc2)cnn1-c1ccccc1`, the “hERG current change (%, negative = inhibition) at 1uM” value falls from 11.7% to 10.8%.

Going from `Cc1cc(C(F)(F)F)nn1CC(=O)NNC(=S)NCC(C)C` to `CC(C)CCNC(=O)Cn1cc2c(n1)CCCCC2`, the “hERG current change (%, negative = inhibition) at 1uM” value rises from -0.182% to 11.3%.

Compared with `COC(=O)c1cc(NC(=O)CC2NCCNC2=O)cc(C(=O)OC)c1` (stereo not shown), `Cc1csc(=O)n1CCC(=O)OCC(=O)Nc1cccc(C#N)c1` is lower in “hERG current change (%, negative = inhibition) at 1uM” value: 9.85% for the first, 3.97% for the second.

Compared with `O=C(CC(Cc1ccccc1)C(=O)O)Nc1ccc(Cl)c(Cl)c1` (stereo not shown), `O=C(COC(=O)Cn1[nH]c(=O)c2ccccc2c1=O)NNC(=O)c1ccccc1` is higher in “hERG current change (%, negative = inhibition) at 1uM” value: 8.97% for the first, 14.1% for the second.

First: Cc1ccc2cc3c(NC(=O)C4CCCO4)nn(CC(C)C)c3nc2c1 (stereo not shown)
Second: CN(CCNC(=O)c1cc2c(-c3ccccc3F)nn(C)c2s1)C1CCCCC1
The “hERG current change (%, negative = inhibition) at 1uM” value of the first is higher: 14% for the first, 10.7% for the second.

Going from `COc1cc(-c2noc(C)c2/C=C/c2cccc([N+](=O)[O-])c2)cc(OC)c1OC` to `COc1cc(Nc2nc3ccccc3n3nnnc23)cc(OC)c1OC`, the “hERG current change (%, negative = inhibition) at 1uM” value rises from 11% to 15.5%.

Compared with `COc1ccc(Cl)cc1S(=O)(=O)N1CCC(O)(c2ccc(Cl)cc2)CC1`, `CN1CCN(C(=O)c2ccc3c(c2)N(Cc2cccc(Cl)c2)C(=O)c2ccccc2S3=O)CC1` (stereo not shown) is lower in “hERG current change (%, negative = inhibition) at 1uM” value: 12.1% for the first, 1.34% for the second.

Going from `COc1ccccc1C(CC(=O)O)NS(=O)(=O)c1ccc2c(c1)N(C(C)=O)CC(C)O2` (stereo not shown) to `COc1ccccc1N(C)S(=O)(=O)c1ccc(C(=O)Nc2ncc(C)s2)cc1`, the “hERG current change (%, negative = inhibition) at 1uM” value falls from 20% to 13.9%.

Going from `COc1ccc(C(=O)NC(=S)N2CCCCC2)cc1[N+](=O)[O-]` to `Cc1cnc(CN(C)Cc2c(C(=O)N3CCCCCCC3)nc3ccc(Cl)cn23)[nH]1`, the “hERG current change (%, negative = inhibition) at 1uM” value falls from 5.8% to 3.9%.

Going from `CCCCN(C(=O)CSc1nnc(-c2ccc(OC)cc2)n1CC)c1c(N)n(Cc2ccccc2)c(=O)[nH]c1=O` to `COCCCNC(=O)c1ccc(Cn2c(=O)c3ccccc3n(CC(=O)NCc3ccco3)c2=O)cc1`, the “hERG current change (%, negative = inhibition) at 1uM” value falls from 9.7% to 6.89%.

Compared with `O=C(NCc1ccccc1)NCC12CC3CC(CC(C3)C1)C2`, `COc1ccccc1N1C(=NC(=O)CCC2CCCC2)SC2CS(=O)(=O)CC21` (stereo not shown) is higher in “hERG current change (%, negative = inhibition) at 1uM” value: 10.3% for the first, 20.6% for the second.

Compared with `COc1ccc(S(=O)(=O)Nc2cccnc2)c(C)c1C`, `Cc1ccc(C(=O)N/N=C/c2c(O)ccc3ccccc23)cn1` is higher in “hERG current change (%, negative = inhibition) at 1uM” value: 2.39% for the first, 13.3% for the second.

First: NC(=O)c1ccsc1NC(=O)COC(=O)/C=C/c1ccc([N+](=O)[O-])cc1
Second: CC1CCN(c2ccccc2NC(=O)c2ccc([N+](=O)[O-])o2)CC1
The “hERG current change (%, negative = inhibition) at 1uM” value of the first is lower: 11.1% for the first, 16.1% for the second.

Going from `Cc1cc(C)cc(C(=O)N[C@@H](C)C(=O)N2CCC3(CC2)NCCc2[nH]cnc23)c1` to `O=C(OCC(=O)N1CCCC1=O)c1ccc(F)c(S(=O)(=O)N2CCOCC2)c1`, the “hERG current change (%, negative = inhibition) at 1uM” value falls from 16.9% to -4.67%.

Compared with `CCC(C)Sc1ccc([C@H]2N[C@@](C)(C(=O)OC)[C@H]3C(=O)N(CC)C(=O)[C@@H]23)cc1.O=C(O)C(F)(F)F` (stereo partly shown), `COc1ccc(C2=NN(CN3C(=O)C(=O)c4ccccc43)C(c3ccc(Br)cc3)C2)cc1` (stereo not shown) is higher in “hERG current change (%, negative = inhibition) at 1uM” value: 9.09% for the first, 19.4% for the second.

Compared with `c1ccc2c(c1)c1ccccc1n2CN1CCOCC1`, `CN1CC(c2ccccn2)C2(SC(=S)N(Cc3ccccc3)C2=O)C12C(=O)Nc1ccccc12` (stereo not shown) is lower in “hERG current change (%, negative = inhibition) at 1uM” value: 10.2% for the first, 0.725% for the second.

First: Br.C=CCn1c(=N)n(CC(=O)OCC)c2ccccc21
Second: Cc1cccc(N=Cc2c(O)n(C)c(=O)n(C)c2=O)c1
The “hERG current change (%, negative = inhibition) at 1uM” value of the first is lower: 8.25% for the first, 11% for the second.

First: CC(C)Nc1nc(NC(C)C)nc(C(=O)OCCO)n1
Second: CCCc1ccc2c(N)c(C#N)sc2n1
The “hERG current change (%, negative = inhibition) at 1uM” value of the first is higher: 16.3% for the first, 1.34% for the second.

Going from `FC(F)(F)c1cccc(NCc2n[nH]c(=S)n2C2CCCCC2)c1` to `Cc1nn2c(-c3ccccn3)ccnc2c1Cl`, the “hERG current change (%, negative = inhibition) at 1uM” value rises from 11.3% to 17.7%.

In the case of `C#CCOCCOCCOCCNc1nc(N2CCN(C(=O)CCCCCCCCCCNC(=O)[C@H](CO)n3cc(CCCSC)nn3)CC2)nc(N2CCN(C(=O)CCCCCCCCCCNC(=O)[C@H](CCCN=C(N)N)n3cc(C[C@@H](C)CC)nn3)CC2)n1`, the “hERG current change (%, negative = inhibition) at 1uM” value is reported as 10.7%.
